{
  "source": "patent US11851681B2",
  "about": "“Cell preparation method” (KYOTO PREFECTURAL PUBLIC UNIVERSITY CORPORATION, priority 2015, dated 2023)",
  "key": {"[1]": {"test_system": "Human normal skin fibroblast cell strain HDFs", "details": "general medium added with 4 μM ALK5 inhibitor II for 3 or 7 days; FIG. 32", "procedure": "Human normal skin fibroblast cell strain HDFs were cultured in 60 mm culture dish and cultured in general medium (−). HDFs were cultured in the general medium added with 4 μM ALK5 inhibitor II for 3 or 7 days. Total RNA was recovered from these cells by ISOGEN II. The mRNA expression pattern of each cell was analyzed genome-wide by using a DNA chip (Affymetrix)."}, "[2]": {"test_system": "human dermal fibroblasts; HDFs", "details": "4 μM in cartilage induction medium; day 21; FIG. 25"}, "[3]": {"test_system": "human dermal fibroblasts; HDFs", "details": "skeleton muscle cell growth medium added with 2 μM ALK5 inhibitor II and 2 μM D4476; day 28; FIG. 10"}, "[4]": {"test_system": "human dermal fibroblasts; HDFs", "details": "4 μM in MDI medium; day 14; FIG. 23"}, "Human fibroblast aHDF45": {"test_system": "Human fibroblast aHDF45", "details": "SC medium added with 4 μM; days 8 and 14; FIG. 55"}, "[5]": {"test_system": "human dermal fibroblasts; HDFs", "details": "day 14, FIG. 41", "procedure": "The adipocyte induction medium is DMEM added with 1 nM T3, 1 μM Rosiglitazone, 0.5 mM 3-isobutyl-1-methylxanthine (IBMX), 0.5 μM dexamethasone, 1 μg/mL Insulin and 10% FBS.\nOnce every 2 days, the culture medium was exchanged with a fresh one."}, "[6]": {"test_system": "Human Epidermal Keratinocyte; NHEK (AD)", "details": "K-osteoblast induction medium, 4 μM until Day 14; day 28; FIG. 48"}, "[7]": {"test_system": "human dermal fibroblasts; HDFs", "details": "calcification induction medium added with ALK5 inhibitor II", "procedure": "After washing 3 times with PBS(−), Blocking One was added, and the mixture was incubated at room temperature for 60 min."}, "[8]": {"test_system": "human dermal fibroblasts; HDFs", "test": "Real-time RT-PCR of Sox9 and Aggrican in cartilage induction medium, Example 8", "type": "cell-based", "details": "ALK5 inhibitor II 2 μM, Cyclic Pifithrin-α 5 μM, day 18, FIG. 8", "procedure": "The concentrations of the compounds are as follows: • Cyclic Pifithrin-α: 5 μM • ALK5 inhibitor II: 2 μM."}, "[9]": {"test_system": "human dermal fibroblasts; HDFs", "details": "4 μM in calcification induction medium; day 13; FIG. 21"}, "[10]": {"test_system": "human dermal fibroblasts; HDFs", "test": "Real-time PCR of AdipoQ, FABP4, PPAR-γ in WA medium, Example 47", "type": "cell-based", "details": "day 12", "procedure": "On day 12, RNA was recovered from the cells. Real-time PCR was performed using TaqMan probes and Primers respectively specific to AdipoQ, FABP4 (mature adipocyte marker), and PPAR-γ (preadipocyte marker) gene, and mRNA was quantified."}, "[11]": {"test_system": "human dermal fibroblasts; HDFs", "test": "Real-time PCR of AdipoQ, FABP4, PPAR-γ, four inhibitors with Rosiglitazone, Example 50", "type": "cell-based", "details": "WA medium added with 1 μM Rosiglitazone and 16 μM compound; day 12; FIG. 54", "excerpt": "On day 12, RNA was recovered from the cells and, in the same manner as in Example 47, mRNA of AdipoQ, FABP4 (mature adipocyte marker), and PPAR-γ (preadipocyte marker) was quantified."}, "[12]": {"test_system": "human dermal fibroblasts; HDFs", "details": "4 μM in cartilage induction medium; day 21; FIG. 26"}, "[13]": {"test_system": "human dermal fibroblasts; HDFs", "test": "Bodipy staining quantification in WA medium, four inhibitors, Example 49", "type": "cell-based", "details": "1 μM Rosiglitazone or 16 μM ALK5 inhibitor II, day 12, FIG. 53"}, "[14]": {"test_system": "human dermal fibroblasts; HDFs", "test": "BODIPY staining and fluorescence intensity, Example 15", "type": "cell-based", "details": "compound 2 μM in addition to T3 1 nM and Rosiglitazone 1 μM; day 14; FIG. 15A, 15B", "procedure": "The concentrations of the additives are as follows: • T3: 1 nM • Rosiglitazone: 1 μM • D4476: 2 μM • SB431541: 2 μM • ALK5 inhibitor II: 2 μM.\nThe cells were fixed with 4% para-formaldehyde, washed with PBS(−), reacted for 5 min with BODIPY 493/503 (Invitrogen)/PBS solution at room temperature and washed 3 times with PBS. The cells were photographed with a fluorescence microscope at ×200 magnification and the fluorescence intensity was measured."}, "[15]": {"details": "WA medium, 16 μM ALK5 i II and 1 μM Rosiglitazone, FIG. 51"}},
  "data": [
    {"smiles": "Cc1cccc(-c2n[nH]cc2-c2ccc3ncccc3n2)n1", "note": "[ALK5 inhibitor II, 2-(3-(6-Methylpyridin-2-yl)-1H-pyrazol-4-yl)-1,5-naphthyridine]", "values": [
      {"measurement": "conversion of fibroblasts to mesenchymal stem cells, expression level of MSC marker genes (DNA chip)", "setting": "[1]", "result": "converted fibroblasts to mesenchymal stem cells (MSCs)"},
      {"measurement": "conversion of fibroblast to chondrocyte, Alcian blue staining", "setting": "[2]", "result": "converted human skin-derived fibroblast to chondrocyte that produces a large amount of cartilage matrix"},
      {"measurement": "conversion of fibroblast to myoblast, MyoD1 and Myogenin mRNA", "setting": "[3]", "result": "can convert human normal skin-derived fibroblast to myoblast expressing Myogenin and MyoD1 gene"},
      {"measurement": "conversion of fibroblast to white adipocyte, Oil Red O staining", "setting": "[4]", "result": "converted human skin-derived fibroblast to white adipocyte that accumulates a large amount of lipid droplets"},
      {"measurement": "conversion of human fibroblast to Schwann cell, S100β and EGR2 mRNA", "setting": "Human fibroblast aHDF45", "result": "converted human fibroblast to Schwann cell co-expressing S100β and EGR2"},
      {"measurement": "conversion of fibroblast to brown adipocyte, UCP1 mRNA, exposure 0-8 days", "setting": "[5]; 4 μM for 0-8 days, thereafter medium free of ALK5 inhibitor II", "result": "can be more strongly induced"},
      {"measurement": "conversion of fibroblast to brown adipocyte, UCP1 mRNA", "setting": "[5]; 4 μM in adipocyte induction medium", "result": "converted fibroblast to brown adipocyte strongly expressing UCP1 gene"},
      {"measurement": "conversion of epidermal keratinocyte to osteoblast, Runx2 mRNA", "setting": "[6]", "result": "converted normal human epidermal keratinocyte to osteoblast expressing Runx2 gene"},
      {"measurement": "conversion of human fibroblast to osteoblast, immunostaining of Runx2", "setting": "[7]; day 19, FIG. 6", "result": "converted human fibroblast to osteoblast expressing Runx2"},
      {"measurement": "conversion of human fibroblast to osteoblast, immunostaining of Osteocalcin", "setting": "[7]; day 24, FIG. 4", "result": "converted human fibroblast to osteoblast producing osteocalcin"},
      {"measurement": "conversion of fibroblast to chondrocyte, Sox9 and Aggrican mRNA", "setting": "[8]", "result": "can convert human normal skin-derived fibroblast to chondrocyte expressing Sox9 and Aggrican gene"},
      {"measurement": "conversion of fibroblast to osteoblast, ALP staining", "setting": "[9]", "result": "converted human normal skin-derived fibroblast to osteoblast having high ALP activity"},
      {"measurement": "conversion of human fibroblast to white adipocyte (mRNA markers)", "setting": "[10]; WA medium added with ALK5 inhibitor II", "result": "converted human fibroblast to white adipocyte"},
      {"measurement": "AdipoQ and FABP4 mRNA expression, co-addition of ALK5 i II and Rosiglitazone", "setting": "[10]; [15]", "result": "strongly induced to express"},
      {"measurement": "PPAR-γ mRNA expression, co-addition of ALK5 i II and Rosiglitazone", "setting": "[10]; [15]", "result": "strongly induced to express"},
      {"measurement": "AdipoQ and FABP4 mRNA expression, ALK5 i II alone", "setting": "[10]; WA medium, 16 μM alone, FIG. 51", "result": "mildly induced to express"},
      {"measurement": "conversion of fibroblast to white adipocyte (mRNA markers), co-presence of Rosiglitazone", "setting": "[10]; WA medium, ALK5 inhibitor II with Rosiglitazone", "result": "more strongly induced conversion of fibroblast to white adipocyte"},
      {"measurement": "PPAR-γ mRNA expression, single addition", "setting": "[10]; WA medium, ALK5 i II 16 μM or Rosiglitazone 1 μM, FIG. 51", "result": "moderately induced to express"},
      {"measurement": "mRNA expression of AdipoQ, FABP4 and PPAR-γ", "setting": "[11]", "result": "most strongly expressed all of these three genes"},
      {"measurement": "conversion of fibroblast to chondrocyte, Aggrecan and type II collagen mRNA", "setting": "[12]", "result": "converted human skin-derived fibroblast to chondrocyte that expresses Aggrecan gene and type II collagen gene"},
      {"measurement": "fat accumulation (BODIPY positive cells, area, intensity), single addition", "setting": "[13]", "result": "showed accumulation of a small amount of fat"},
      {"measurement": "conversion of fibroblast to brown adipocytes, BODIPY staining and fluorescence intensity", "setting": "[14]", "result": "converted fibroblast to brown adipocytes having lipid droplets stained with BODIPY"}
    ]}
  ]
}
